About 14,000 (4.5%) of roughly 310,000 compounds showed an effect of 50% or more. Effects have a minus sign here. The list shows a part of the results.
target: human ether-à-go-go-related gene (hERG) potassium channel (human, UniProt Q12809); assay: primary screen, population patch clamp on CHO cells stably expressing hERG
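Note: peak tail current of the secondary pulse compared with the same well before compound.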

Chain of human ether-à-go-go-related gene (hERG) potassium channel (Q12809 whole entry, looked up): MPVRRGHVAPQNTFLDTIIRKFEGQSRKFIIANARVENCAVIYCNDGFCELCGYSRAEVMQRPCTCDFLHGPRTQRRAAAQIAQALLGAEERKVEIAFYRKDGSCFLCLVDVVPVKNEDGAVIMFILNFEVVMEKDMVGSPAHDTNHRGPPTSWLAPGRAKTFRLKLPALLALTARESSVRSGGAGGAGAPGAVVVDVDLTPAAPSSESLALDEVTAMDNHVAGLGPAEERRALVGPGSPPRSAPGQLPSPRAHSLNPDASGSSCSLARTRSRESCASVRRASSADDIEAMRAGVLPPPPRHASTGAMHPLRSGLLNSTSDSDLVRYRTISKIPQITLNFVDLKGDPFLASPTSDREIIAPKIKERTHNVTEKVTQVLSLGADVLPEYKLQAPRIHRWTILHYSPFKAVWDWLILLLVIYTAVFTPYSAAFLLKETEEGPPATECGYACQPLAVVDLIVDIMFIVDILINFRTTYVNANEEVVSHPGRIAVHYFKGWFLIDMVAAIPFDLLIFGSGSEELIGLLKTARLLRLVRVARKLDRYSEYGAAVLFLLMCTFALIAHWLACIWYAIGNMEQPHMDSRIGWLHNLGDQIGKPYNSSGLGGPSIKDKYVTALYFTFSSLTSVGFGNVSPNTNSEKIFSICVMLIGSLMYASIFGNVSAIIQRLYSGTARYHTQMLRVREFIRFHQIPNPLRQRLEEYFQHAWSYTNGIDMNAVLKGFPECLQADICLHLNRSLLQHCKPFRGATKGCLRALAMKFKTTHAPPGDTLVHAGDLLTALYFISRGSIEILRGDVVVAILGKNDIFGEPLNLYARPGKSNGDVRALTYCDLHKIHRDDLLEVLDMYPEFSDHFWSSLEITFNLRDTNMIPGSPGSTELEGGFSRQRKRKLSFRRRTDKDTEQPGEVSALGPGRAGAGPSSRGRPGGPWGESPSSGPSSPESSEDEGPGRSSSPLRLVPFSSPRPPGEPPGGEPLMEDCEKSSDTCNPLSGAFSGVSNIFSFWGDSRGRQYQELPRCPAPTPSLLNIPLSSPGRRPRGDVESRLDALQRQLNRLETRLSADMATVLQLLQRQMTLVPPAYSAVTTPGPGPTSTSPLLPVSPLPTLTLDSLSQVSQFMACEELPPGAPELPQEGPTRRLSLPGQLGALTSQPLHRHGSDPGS

Compound | hERG current change (%, negative = inhibition) at 10uM
COc1ccc2cc3cc(C(=O)NCCc4ccc(OC)c(OC)c4)oc3nc2c1 | 6.54%
O=C1CC(c2cc(Br)ccc2F)c2cc3c(cc2N1)CCC3 (centres unmarked) | -28.5%
NC(=O)c1ccc(N=Cc2ccc([N+](=O)[O-])s2)cc1 | 8.6%
CC1CC(N(C(=O)c2ccccc2Cl)c2ccccc2)c2ccccc2N1 (centres unmarked) | 11.7%
COc1ccc(N2Cc3cccc(C(=O)N4CCN(C(=O)c5ccco5)CC4)c3C2=O)cc1 | -29.6%
COC(=O)c1ccccc1N=Nc1c(C)noc1C | 6.19%
C1=C(CCNc2ncnc3nc[nH]c23)CCCC1 | -3.59%
CN1C(=O)c2ccc(C(=O)Nc3ccccc3O)cc2C1=O | 4.6%
COc1ccc(CN2CCNC(=O)C2CC(=O)N(C)CC2CCOCC2)cc1OC (centres unmarked) | 7.8%
COc1cc(C2N(Cc3ccccc3)CCN2Cc2ccccc2)ccc1OC(C)=O | 1.77%
Cc1ccc(-c2c(C)sc3ncn(CC(=O)N4CCOCC4)c(=O)c23)cc1C | -20.4%
O=C1/C(=C/c2cccs2)SC(=S)N1C1CCS(=O)(=O)C1 (centres unmarked) | 2.16%
C/C(=C\C(=O)c1ccncc1)Nc1ccccc1O | -34.9%
CN(CC(=O)NC1CCCCC1)S(=O)(=O)c1ccc2c(c1)c(=O)n(C)c(=O)n2C | -7.6%
Cc1cc(N/N=C/c2ccccc2F)c2ccccc2n1 | 9.06%
CSc1ccc(S(=O)(=O)NCC(=O)OCC(=O)NCc2ccco2)cc1[N+](=O)[O-] | -61.7%
COc1ccc(C(=O)CSc2nc(C)cc(=O)[nH]2)cc1 | 16%
COc1ccc2c(c1)c(CC(=O)Nc1nnc(C3CC3)s1)c(C)n2C(=O)c1ccc(Cl)cc1 | 28.2%
CCN1CCN(C(=S)NC(C)c2ccccc2)CC1.O=C(O)C(=O)O (centres unmarked) | 3.4%
COc1ccc(CN2C=C3C(=O)C(C)(OC(=O)CCc4ccccc4)C(=O)C=C3C=C2c2ccc(C#N)cc2)cc1 (centres unmarked) | -31.7%
CC(CC(=O)O)CC(=O)NNC(=O)c1cccc(Br)c1 (centres unmarked) | 11.8%
CCCCC1CCC(C(=O)NCc2ccc3c(c2)OCO3)CC1 (centres unmarked) | -9.78%

Compound | hERG current change (%, negative = inhibition) at 10uM
CCN(CC)C(=O)C(=O)c1ccn(-c2c(C)csc2C(=O)OC)c1 | -9.5%
N#Cc1ccc(Cn2c(-c3ccc(F)cc3)noc2=O)cc1 | -17.8%
O=C(CN1CCOCC1)Nc1ccc(Cl)c(Cl)c1.O=C(O)C(=O)O | 7.46%
Cc1cnc(NC(=O)c2ccc(OCC3CCCO3)cc2)s1 (centres unmarked) | 17.5%
Cc1sc2ncnc(SCC(=O)N(C)C3CCS(=O)(=O)C3)c2c1C (centres unmarked) | -21.8%
O=C(O)C1CCCN(S(=O)(=O)c2ccc(F)cc2)C1 (centres unmarked) | 20.4%
CC[C@@H](C)[C@H](NC(=O)Cc1c(C)c2c(cc(C)c3c(C)c(C)oc32)oc1=O)C(=O)O | 7.76%
CCOC(=O)c1c(C)[nH]c(C)c1S(=O)(=O)N(C)CC(=O)Nc1ccccc1OC | -60%
Cc1ccc(/C(N)=N/OC(=O)Cc2ccccc2)cc1 | 19%
COc1ccc(C2C(C#N)=C(N)Oc3c2c(C)nn3-c2ccccc2)cc1Cn1nc(C)c([N+](=O)[O-])c1C (centres unmarked) | -4.96%
COc1cccc(NC(=O)COC(=O)c2c(C)nn(-c3ccccc3)c2C)c1 | -7.46%
CC(C)C(NC(=O)c1ccccc1)c1nnc(SCC(=O)Nc2nccs2)n1C (centres unmarked) | 12.8%
COc1cccc(N2C(=O)C(CC(=O)Nc3ccccc3)N(C3CCCCC3)C2=O)c1 (centres unmarked) | -10.2%
COc1ccc(NC(=O)CN(C)C(=O)c2cn(-c3ccccc3)nc2-c2ccc(Cl)cc2)cc1 | 12.1%
COc1ccc(Cl)cc1S(=O)(=O)NC1CC(C)(C)NC(C)(C)C1 | 19.8%
O=P(O)(CP(=O)(c1ccccc1)c1ccccc1)c1ccccc1 | 10.6%
COc1ccc(OC)c(S(=O)(=O)Nc2ccccc2C(F)(F)F)c1 | -6.75%
CCOc1cc(C)c(Cl)cc1S(=O)(=O)n1nnc2ccccc21 | 6.52%
CC(=O)Nc1ccc(NC(=O)C2CCCN(c3nnc(-n4cccc4)s3)C2)cc1 (centres unmarked) | 7.44%
Cn1c(=O)c2[nH]c(C3CCCC3)nc2n(C)c1=O | 7%
O=C(CCN1CCN(Cc2ccccc2)CC1)NNC(=O)Nc1cccc(C(F)(F)F)c1 | -48.4%
CC(=O)c1cn(CC(=O)Nc2ccccc2F)c2ccccc12 | 2.54%

Compound | hERG current change (%, negative = inhibition) at 10uM
CC(C)CC(COCc1ccc(Cl)cc1)N1CCN(C(=O)c2ccc(Cl)cc2Cl)CCC1=O (centres unmarked) | -11.8%
CCc1ccccc1-n1c(SCC(=O)N2CCCC2)nnc1-c1ccccn1 | -4.94%
C=CCN(Cc1ccc(OC)c(OC)c1)C(=O)N1CCOCC1 | -19.7%
COc1ccc(C(=O)O/N=C(\N)Cc2cccs2)cc1OC | 3.79%
Cc1c(N)cc(C(=O)N2CCOCC2)cc1[N+](=O)[O-] | 9.24%
COC(=O)c1c(C)oc2c1cc(NS(=O)(=O)c1cccs1)c1ccccc12 | -2.87%
COc1ccc(/C=C(\NC(=O)c2ccc(Cl)cc2)C(=O)NCCCn2ccnc2)cc1OC | 13.9%
COc1ccc(S(=O)(=O)N2CCC(C(=O)NCc3cccnc3)CC2)cc1OC | 16.1%
O=C(NCc1ccccc1)c1ccc(Cl)cc1 | 2.26%
CCCCNC(=O)c1onc(CSc2cccc(OCC)c2)c1C(=O)O | 13.1%
C=CCOC(=O)CC(NC(=O)c1ccccc1)c1ccccc1 (centres unmarked) | -20.9%
CCS(=O)(=O)CCSc1nc2ccccc2o1 | 11%
Cc1ccc(-c2n[nH]c(=S)n2/N=C/C=C\c2ccccc2[N+](=O)[O-])cc1 | 11%
COc1ccccc1NC(=O)C(C)n1cnc2c(oc3nc4c(cc32)CCCC4)c1=O (centres unmarked) | -6.89%
CCOc1ccccc1NC(=O)CCCN1C(=S)NC(C)(C)CC1C (centres unmarked) | 6.95%
COc1cc(C(=O)Nc2ccc(C(=O)c3cccs3)cc2)cc(OC)c1OC | -10.1%
NS(=O)(=O)c1ccc(NC(=S)N2CCN(c3ccccc3)CC2)cc1 | 11.9%
CCOC(=O)c1c(-c2cccs2)csc1NC(=O)CC(C)C | 7.62%
CSc1ncccc1C(=O)Nc1ccc(S(=O)(=O)NC2=NCCCCC2)cc1 | 7.85%
CCn1cc(C(=O)Nc2ccc(C)cc2C)c(=O)c2ccc(C)nc21 | 20.3%
CCC(C)(C)NC(=O)CN(Cc1ccco1)C(=O)CCC(=O)Nc1nccs1 | -0.68%
COC(=O)c1ccc(S(=O)(=O)N2CCc3ccccc32)cc1 | 8.09%

Compound | hERG current change (%, negative = inhibition) at 10uM
CC(=O)Nc1ccc(NC(=O)C(C)OC(=O)C2(c3ccccc3F)CCCC2)cc1 (centres unmarked) | 7.14%
O=c1[nH]c(SCc2ccc([N+](=O)[O-])cc2)nc2[nH]ncc12 | -30.9%
Cc1ccc2nc(N(CCCN(C)C)C(=O)c3ccc(S(=O)(=O)N(C)C)cc3)sc2c1.Cl | -42.1%
O=C(NNC(=O)c1ccc([N+](=O)[O-])cc1)c1ccncc1 | -14.9%
CN(Cc1ccccc1)c1nc2c(c(=O)[nH]c(=O)n2C)n1CCSc1nc2ccccc2[nH]1 | -18.5%
N#Cc1c(N2C(=O)Nc3ccccc3N2O)sc2c1CCCC2 | 7.72%
COCCCNC(=S)NNC(=O)c1ccoc1C | 21.4%
CCN1CCC2(CCN(Cc3cn[nH]c3-c3ccc(OC)c(F)c3)C2)C1 (centres unmarked) | 15.9%
CC(=O)N1c2ccc(S(=O)(=O)N3CCC(C(=O)N4CCN(c5ccc(Cl)cc5)CC4)CC3)cc2CC1C (centres unmarked) | -22.5%
COc1ccc(-c2cc(C(F)(F)F)n3nc(N)nc3n2)cc1 | -2.8%
O=C(CC1Sc2ccccc2NC1=O)Nc1cccc(-c2nnc3n2CCCCC3)c1 (centres unmarked) | 0.432%
COC(=O)c1ccc(C2/C(=C(\O)c3ccc(OC)c(C)c3)C(=O)C(=O)N2c2cc(C)on2)cc1 (centres unmarked) | -1.13%
CC(C)c1cc(N2CCC(=O)NC2=O)cc(C(=O)O)c1O | 34.1%
CC(C)(C)OC(=O)N1CCC(C(=O)Nc2ccc3c(c2)CCC3)CC1 | -29.1%
CCOC(=O)c1c(NC(=S)Nc2ccccc2)sc2c1CCN(C)C2 | -74.2%
COc1ccc(NC(=S)NCc2cccs2)c(OC)c1 | 2.35%
CCCCOC(=O)Cn1c(=N)n(CCN2CCOCC2)c2ccccc21.Cl | -36.3%
CN(C)[C@@H]1C(=O)C(C(N)=O)=C(O)[C@@]2(O)C(=O)C3=C(O)c4c(O)cccc4[C@@](C)(O)C3[C@H](O)C12.Cl (some centres unmarked) | -1.22%
C/C=C/C(=O)OCC(=O)Nc1ccc(F)cc1Cl | -0.779%
Cc1cc(=O)oc2cc(NC(=O)c3ccccc3Cl)ccc12 | 28%

Source: article PMC4336329 (PLoS ONE, 2015)
